Data taken from PubChem BioAssay AID1347417 (National Center for Advancing Translational Sciences (NCATS), 2020).
In all, about 120,000 compounds went through this assay and about 5,300 (4.4%) were called active. This list was built around the results that the source calls inconclusive (neither active nor inactive); the mix of calls is not that of the screen. The call rests on the fitted dose curve; in most records, active means well fitted inhibition curve with a large enough effect; inconclusive means small, poorly fitted or top-dose-only effect; inactive means no such curve, though single readings can be large or run the other way. A potency beside an inconclusive call is a rough fit, not a confirmed value.

Assay: qHTS Primary assay for Inhibitors of Plasmodium falciparum Dd2 growth in vitro; further: nearly all actives have a fitted effect of over 65% in size;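 on activity, negative = inhibition: plate controls were DMSO vehicle for no effect and reference drug for full effect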
Details: P. falciparum Dd2 growth, SYBR Green, 72 h; activity, negative = inhibition: at 28.9 µM (top of the series) unless noted; series mostly up to 28.9 µM
Source text: Malaria, a parasitic disease spread to humans through the bite of a Plasmodium infected Anopheles mosquito, continues to be a global health burden affecting millions of people, with an estimated 228 million cases and 405,000 deaths in 2018. Concerns about safety and limitations of current antimalarial treatments strongly emphasize the need to develop new therapeutic options. The scarce number of chemotypes and validated drug targets with efficacy against the liver stage, have hindered development of new antimalarials. To address this, a chemoprophylactic drug discovery effort was conducted through a combined phenotypic high-throughput asexual blood stage and liver stage screen, providing a robust foundation to identify liver-stage active lead chemotypes. Compounds were initially screened against Plasmodium falciparum Dd2 strain parasites using a in vitro SYBRGreen-1 based 72 hr proliferation assay to identify novel chemotypes to advance to liver stage assays. NIH/NCATS Early Translation Branch Assay Submitter (PI): Anton Simeonov Ph.D.
Malaria-vivax Assay Protocol: PROTOCOL TABLE (as described by Inglese et al., 2007) SEQUENCE No. (e.g., 1, 2, 3, etc.); […] (e.g., Cells, Incubation, Reagent, etc.); VALUE; DESCRIPTION SEQUENCE, Parameter, Description 1; Reagent; 3 uL complete malaria growth medium, 1536 TC treated Black clear bottom plate 2; Controls; 23 nL positive control artesunate (300 nM final) to column 1; Neutral control DMSO to columns 2-4 3; Compound; 23 nL of compounds in dose response concentration (29 uM to 0.5 nM final) 4; Reagent; 5 uL malaria infected red blood cells (2.5% hematocrit final, 0.3% parasitemia 5; Time; 72 hours at 37C (5% O2, 5% CO2, 90% N2; 95% Rh) 6; Reagent; 2 uL lysis buffer/SYBRGreen-1, 25 sec shake immediately following dispense 7; Time; ~16 hours at 37C (5% O2, 5% CO2, 90% N2; 95% Rh) 8; Detector; EnVision (PerkinElmer) bottom read at 485/14nm excitation and 535/25 nm emission NOTES (numbers refer to sequence above): 1; Complete Malaria Growth Media: 1X RPMI-1640 w/L-glutamine, 5.5g/L Albumax II, 367 uM Hypoxanthine, 25 mM HEPES, 0.25% Sodium Bicarbonate, 35 uM Gentamicin sulfate 2; Controls were added using the Kalypsis Pintool (Wako USA) equipped with 1536 pinhead 3; Compounds were added in a 7-point, titration with a high final concentration of 29 uM by Pintool from seven inter-plate titrations of library plates and two DMSO control plates at the beginning and end (see Yasgar et al., 2008). 4; Red blood cells infected with Plasmodium falciparum Dd2 parasites were used. 6; Lysis buffer: 20 mM Tris-HCl, 10 mM EDTA, 0.16% Saponin, 1.6% Triton-X, 10X SYBR Green. REFERENCE: Inglese J, Shamu CE, Guy RK. 2007. Reporting data from high-throughput screening of small-molecule libraries. Nat Chem Biol. doi:10.1038/nchembio0807-438 Yasgar A, Shinn P, Jadhav A, Auld D, Michael S, Zheng W, Austin CP, Inglese J, Simeonov A. 2008. Compound Management for Quantitative High-Throughput Screening. J Lab Autom 13:79-89. doi:10.1016/j.jala.2007.12.004
Potency means the concentration at half of the fitted maximal effect; tags describe the fitted curve by direction and shape.

SMILES | Potency | activity, negative = inhibition | outcome
O=C(NC1CCCN(C2CCCCCC2)C1)c1ccccc1N1CCOCC1 (centres undefined) | inconclusive: 11.2 µM [inhibitor, single point] |  | 
Cc1ccc(CN2CCCCCNC(=O)[C@@H]3CCC[C@@H]32)s1 |  | inactive: -16.9% | 
COc1ccc(-c2cc(N3CCCN(C(=O)c4ccc(C)c(F)c4)CC3)n[nH]2)cc1 | inconclusive: 1.58 µM [inhibitor, partial curve, poor fit] |  | 
CSCC[C@@H]1NC(=O)c2cc(NC(=O)Cc3ccc4c(c3)OCC4)ccc2NC1=O |  | inactive: -2.35% | 
CCOC(=O)C1=C(CN2CCN(c3ccccc3)CC2)NC(=O)NC1c1ccc(C)cc1 (centres undefined) | inconclusive: 11.2 µM [inhibitor, partial curve] |  | 
COc1ccc(C2c3c(-c4ccccc4O)n[nH]c3C(=O)N2Cc2ccco2)cc1 (centres undefined) | inconclusive: 12.6 µM [inhibitor, partial curve] |  | 
CCOc1ccc(C(=O)OCc2cc(=O)n3nc(C4CCCCC4)sc3n2)cc1 | inconclusive: 14.1 µM [inhibitor, partial curve, poor fit] |  | 
c1cncc(CN2CCn3c(nnc3C3CCCNC3)C2)c1 (centres undefined) | inactive |  | 
O=C(NCC1CCCO1)c1ccc(CN2C(=O)NC3(CCOCC3)C2=O)cc1 (centres undefined) |  | inactive: 30.8% | 
O=C1NCC2(CCN([S+](=O)([O-])c3ccccc3)CC2)Oc2ccccc21 | inconclusive: 11.2 µM [inhibitor, single point] |  | 
COc1cccc(NC(=O)Cn2c(=O)n(-c3ccc(CC(=O)NCC4CCCO4)cc3)c(=O)c3ccccc32)c1 (centres undefined) | inconclusive: 17.8 µM [inhibitor, single point] |  | 
Cc1[nH]ncc1CNC(=O)[C@H]1CN(Cc2ccccc2)C[C@H]1C(=O)O |  | inactive: 6.74% | 
CCOc1ccccc1NC(=O)c1cccc2c1C(=O)N(C1CCCCC1)C2 | inconclusive: 12.6 µM [inhibitor, single point] |  | 
CN(C)C(=O)C1CN(C(=O)CCCc2ccccc2)CC12CCOCC2 (centres undefined) |  | inactive: 8.45% | 
CN(Cc1cccc(C(F)(F)F)c1)C(=O)c1ccccc1F | inconclusive: 31.6 µM [inhibitor, single point] |  | 
CN1C(=O)CCC2(CNC(=O)c3nn(C)c4ccccc34)CCCC=C12 (centres undefined) |  |  | inactive
COc1ccc(CN2CCC3(COc4ncccc4[S+](=O)([O-])N3)C2)cc1 (centres undefined) | inconclusive: 3.98 µM [inhibitor, single point] |  | 
Cc1ccsc1CN1CCCCCNC(=O)[C@@H]2CCC[C@@H]21 |  | inactive: -7.66% | 
CC(=O)c1cccc(NC(=O)CCS(=O)(=O)c2cc(Br)cc3c2N(C(=O)C2CC2)CC3)c1 | inconclusive: 11.2 µM [inhibitor, single point] |  | 
